Experimental data taken from PubChem BioAssay AID485364 (National Center for Advancing Translational Sciences (NCATS), 2010).
The whole screen tested about 360,000 compounds, of which about 11,000 (3.1%) were called active. The inconclusive results got no clear call from the source; some entries with a clear call stand among them for comparison. Calls follow the shape of the dose curve; as a rule, active = well fitted inhibition curve with a large enough effect; inconclusive = small, poorly fitted or top-dose-only effect; inactive = no such curve, though single readings can be large or run the other way. Potencies of inconclusive entries are left out as doubtful fits.

Molecular target: Schistosoma mansoni thioredoxin glutathione reductase (TGR) (UniProt Q962Y6)
Assay: qHTS Assay for the Inhibitors of Schistosoma Mansoni Peroxiredoxins; also: nearly all actives have a fitted effect of over 60% in size
Conditions: purified TGR, DTNB reduction, TNB absorbance 405 nm; activity change, negative = inhibition: at 114 µM (top of the series) unless noted
Procedure, shortened: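 First, TGR (20 nM dispensed) and NADPH were mixed with compound. Second, a 15 min room-temperature incubation followed. Third, further NADPH and then DTNB were added to start the reaction. Finally, TNB absorbance was monitored kinetically.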
% is scaled to controls: 0 for no effect and ±100 for the full control effect; potency is read from the fitted curve at half-maximal effect; tags tell the direction and shape of the fitted curve.

Row | SMILES | Potency | activity change, negative = inhibition
1 | COc1ccc(OCC#CCN2CCCCCC2)cc1 | inconclusive [inhibitor, partial curve] | –
2 | N#Cc1ccc(C23CC4(C2)[C@H](CN(Cc2ccc(-c5ccccc5)cc2)[C@@H]4c2ccccc2)C3c2ccc(Cl)nc2)cc1 (stereo not given in full) | inconclusive [inhibitor, partial curve] | –
3 | CCOc1cc(CN2CCCC(C(=O)c3cccc(C(F)(F)F)c3)C2)ccc1O (stereo not given) | inconclusive [inhibitor, partial curve] | –
4 | Cc1cc(C)n(C(=O)c2ccc(NC(=O)C3COc4ccccc4O3)cc2)n1 (stereo not given) | inconclusive [inhibitor, full curve, poor fit] | –
5 | COc1ccc(-c2ccnc3nc(-n4cccc4)nn23)cc1 | inconclusive [inhibitor, partial curve] | –
6 | O=C(CSc1ccc2nnc(-c3cccc(F)c3)n2n1)NCc1ccco1 | inconclusive [inhibitor, partial curve] | –
7 | C=CCN(CC=C)S(=O)(=O)c1ccc(NC(=S)NC(=O)c2ccco2)cc1 | inconclusive [inhibitor, single point] | –
8 | Cc1ccccc1NC(=O)C1CCC(CNS(=O)(=O)c2ccc3c(c2)C(C)(C)C(=O)N3C)CC1 (stereo not given) | inactive | –
9 | CCn1c(CSc2nnc(-c3ccoc3C)n2C)nc2cc(S(=O)(=O)N(C)C)ccc21 | inconclusive [inhibitor, partial curve] | –
10 | COCCNC(=O)CN(C(=O)CCC(=O)Nc1ccccn1)c1cc(C)ccc1C | – | inconclusive: -41.8% [inhibitor]
11 | COc1ccccc1N1CCN(CC(=O)c2ccc(F)cc2)CC1 | active: 22.4 µM | –
12 | CCOC(=O)c1ccccc1NC(=O)c1ccccc1N(C)S(C)(=O)=O | inconclusive [inhibitor, single point] | –
13 | CCOc1ccc(C(C)=O)cc1COc1cccnc1[N+](=O)[O-] | active: 35.5 µM | –
14 | CCn1c(=O)n(CC)c2cc(N3CCCC3)c(NC(=O)c3cccc(C)c3)cc21 | inconclusive [inhibitor, partial curve] | –
15 | COc1ccc2[nH]c(=O)c(CN(C(=O)c3cccc(Cl)c3)c3ccccc3OC)cc2c1 | inactive | –
16 | COC(=O)c1ccc(CSCc2ccc(C(=O)OC)o2)o1 | inactive | –
17 | COc1ccc(C(=O)C(Cc2cc(C(C)=O)ccc2OC)N2CCCC2)cc1 (stereo not given) | inconclusive [inhibitor, partial curve] | –
18 | COc1ccc2cc(CN(CCc3ccccc3)Cc3nnnn3Cc3ccco3)c(=O)[nH]c2c1 | inconclusive [inhibitor, partial curve] | –
19 | O=C(Nc1ccc2oc(-c3ccncc3)nc2c1)c1ccc(Br)o1 | inconclusive [inhibitor, partial curve] | –
20 | CCCOC(=O)Oc1ccc2c(=O)c(Oc3cc(C)cc(C)c3)coc2c1 | inactive | –
21 | Cc1ccc2c(CN3CCCc4ccccc43)cc(=O)oc2c1C | inconclusive [inhibitor, partial curve] | –
22 | OC(COc1ccc2c(c1)OCO2)CN1CCCCC1 (stereo not given) | inconclusive [inhibitor, single point] | –
23 | Cc1ccc(O)c(CNc2cnc3ccccc3c2)c1 | inconclusive [inhibitor, partial curve, poor fit] | –

Row | SMILES | Potency | activity change, negative = inhibition
24 | COc1ccc(-c2nnc(SCc3ncc(-c4ccccc4)o3)o2)cc1 | active: 39.8 µM | –
25 | CCC(CC)=N/N=C/c1c(O)n(CC)c2cc(C3=NNC(=O)CC3)ccc12 | inconclusive [inhibitor, partial curve] | –
26 | CCCn1c(=O)c(C(=O)Nc2cccc(C)c2)c(O)c2ccccc21 | inactive | –
27 | Cn1c(CO)cnc1-c1ccccc1 | inactive | –
28 | CCCNC(=O)C(=O)NCC(c1ccc2c(c1)OCO2)N1CCOCC1 (stereo not given) | inactive | –
29 | CC1(C)CC(=NOC(=O)c2ccccc2)CC(C)(C)N1 | inactive | –
30 | CCOC(=O)c1cccc(NC(=O)CCS(=O)(=O)c2cccc3nsnc23)c1 | inconclusive [inhibitor, partial curve] | –
31 | CC(C)(C)NC(=O)CN1CCN(C(=O)CCl)CC1 | active: 44.7 µM | –
32 | COc1ccc(/C=C(/NC(=O)c2ccccc2)C(=O)NCCCn2ccnc2)cc1OC | inconclusive [inhibitor, partial curve] | –
33 | CC(C)C(NC(=O)C1CCCCC1)C(=O)NC1=NCCS1 (stereo not given) | inactive | –
34 | O=C1CC(C(=O)N(c2cccc(F)c2)C(C(=O)NC2CCCC2)c2ccccn2)CS1 (stereo not given) | inconclusive [inhibitor, single point] | –
35 | Cc1ccc2c(=O)cc(C(=O)Nc3ccc(S(=O)(=O)Nc4nc(C)cc(C)n4)cc3)oc2c1 | inactive | –
36 | Cc1cc(C)c2[nH]c(=O)c(C(c3nnnn3CC3CCCO3)N3CCCC(C)C3)cc2c1 (stereo not given) | active: 12.6 µM | –
37 | O=C(N/N=C/c1cccc(OC(=O)c2cccc(Br)c2)c1)c1ccncc1 | inconclusive [inhibitor, full curve, poor fit] | –
38 | O=C(CSc1nnc(-c2cccc(S(=O)(=O)N3CCCC3)c2)n1-c1ccccc1)Nc1cccc(C(=O)O)c1 | inconclusive [inhibitor, partial curve] | –
39 | O=C(N/N=C1/CC2CCC1C2)c1cc2ccccc2cc1O (stereo not given) | inactive | –
40 | COc1cc(NC(=S)NCc2cccnc2)c(OC)cc1Cl | inconclusive [inhibitor, partial curve] | –
41 | CC1Cc2cc(/C(O)=C3/C(=O)C(=O)N(Cc4ccco4)C3c3cccs3)ccc2O1 (stereo not given) | active: 35.5 µM | –
42 | O=C(c1ccc(CNS(=O)(=O)c2ccccc2)cc1)N1CCC2(CC1)OCCO2 | active: 39.8 µM | –
43 | O=C(c1cccc(S(=O)(=O)N2CCCCC2)c1)N1CCN(Cc2ccccc2)CC1 | inconclusive [inhibitor, partial curve] | –
44 | COc1ccc(CC(=O)NNC(=O)[C@@H]2CCCC[C@@H]2C(=O)O)cc1 | inactive | –
45 | Cc1cc2c(c(=O)n1C)C(Cc1ccccc1)C(C#N)=C(N)O2 (stereo not given) | inconclusive [inhibitor, partial curve] | –
